Assay results: PubChem BioAssay AID504466 (National Center for Advancing Translational Sciences (NCATS), 2011)
The whole screen tested about 330,000 compounds, of which about 4,200 (1.3%) were called active. This list was built around the results that the source calls inconclusive (neither active nor inactive); the mix of calls is not that of the screen. Calls follow the shape of the dose curve; as a rule, active = well fitted activation curve with a large enough effect; inconclusive = small, poorly fitted or top-dose-only effect; inactive = no such curve, though single readings can be large or run the other way. A potency beside an inconclusive call is a rough fit, not a confirmed value.

Assay: qHTS screen for small molecules that induce genotoxicity in human embryonic kidney (HEK293T) cells expressing luciferase-tagged ELG1; also: nearly all actives have a fitted effect of over 60% in size; as to activity change, positive = activation: % of control where 0% means no effect
Details: HEK293T ELG1-luciferase reporter, luminescence, 16 h; series mostly up to 46 µM; activity change, positive = activation: at the top concentration
Summary of the method: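 Screening used a luciferase reporter fused to human ELG1 in HEK293T cells. Luminescence was read on a CCD plate imager after 16 hr exposure and 30 min ONE-Glo incubation.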
Potency is read from the fitted curve at half-maximal effect; tags tell the direction and shape of the fitted curve.

| SMILES | activity change, positive = activation | Potency |
| --- | --- | --- |
| O=C(NCc1ccc(Cl)cc1)C1CCN(S(=O)(=O)c2cccnc2)CC1 | inactive: -3.1% | – |
| O=C(O)c1cccc(-n2nc(-c3ccc(Cl)c([N+](=O)[O-])c3)c3ccccc3c2=O)c1 | inactive: 12.9% | – |
| COc1ccc(C(=O)Nc2ccccc2C(=O)NC(Cc2ccc(O)cc2)C(=O)NNC(=O)c2ccc(C)cc2)cc1 (configuration not stated) | – | inconclusive: 29.1 µM [activator, partial curve, poor fit] |
| COc1ccccc1NC(=O)Cn1nnc(-c2ccccc2NC(=O)c2ccco2)n1 | – | inconclusive: 29.1 µM [activator, single point] |
| O=C(O)CC(C(=O)O)n1nc(-c2ccccc2)cc1-c1ccccc1 (configuration not stated) | – | inconclusive: 23.1 µM [activator, single point] |
| CCOC(=O)c1sc(=NC(=O)c2c(F)cccc2F)n(C)c1C | – | inconclusive: 20.6 µM [activator, partial curve, poor fit] |
| COc1ccc(NC(=O)CSCC(=O)Nc2ccc(C)c(S(=O)(=O)N3CCCCCC3)c2)cc1 | inactive: -5.65% | – |
| COC(=O)c1ccc(C23CC4(C2)[C@H](CN(C)[C@@H]4c2ccccc2)C3c2ccc(Cl)nc2)cc1 (some centres not stated) | inactive: -2.72% | – |
| O=C(Nc1ccc(C2CC2(Cl)Cl)cc1)c1cccc([N+](=O)[O-])c1 (configuration not stated) | – | inconclusive: 10.3 µM [activator, partial curve] |
| c1ccc(CN2CCN(CCCNc3ccc4nnc(-c5ccccc5)n4n3)CC2)cc1 | inactive: -11.2% | – |
| COc1ccc(/C=C/C(=O)NC(=S)NNC(=O)c2cnccn2)cc1 | – | inconclusive: 23.1 µM [activator, partial curve, poor fit] |
| N#C/C(=C/c1ccc(N2CCOCC2)o1)c1ccc(Cl)cc1 | – | inconclusive: 20.6 µM [activator, single point] |
| O=C(NCCC1=CCCCC1)c1ccc(F)cc1 | – | inconclusive: 1.64 µM [activator, full curve] |
| O=C(Nc1ccccc1O)c1csc2c1CCCC2 | – | inconclusive: 11.6 µM [activator, partial curve] |
| Fc1ccccc1Cc1noc(CN2CCC(OCc3cccnc3)CC2)n1 | – | inconclusive: 25.9 µM [activator, partial curve, poor fit] |
| Cc1ccc(C(=O)COC(=O)c2ccco2)cc1C | – | active: 23.1 µM |
| Cc1nc(/C=C/c2ccccc2)[nH]c(=O)c1-c1ccccc1 | – | inconclusive: 10.3 µM [activator, partial curve] |
| CC1(C)CC(=O)C2=C(C1)Nc1ccccc1NC2c1ccccn1 (configuration not stated) | inactive: 1.15% | – |
| COc1cc(C2NC(=S)NC3=C2CCc2ccccc23)cc(OC)c1OC (configuration not stated) | inactive: 2.79% | – |
| COc1cc2c(cc1OC)C1=C(C#N)CCC(=NC(=O)c3ccc(Cl)cc3)N1CC2 | inactive: 7.57% | – |
| CCN1C=CC(=C2C(=O)c3ccccc3C2=O)C=C1 | – | inconclusive: 0.058 µM [activator, full curve, poor fit] |
| COc1ccccc1C(=O)NNC(=O)c1ccc(Br)o1 | – | inconclusive: 18.3 µM [activator, partial curve] |
| CCCCOc1cccc(NC(=O)CSc2nccn2C)c1 | – | inconclusive: 20.6 µM [activator, partial curve, poor fit] |
| O=C(Nc1ccc2c(c1)OCCO2)c1cccc(Cl)c1Cl | – | active: 2.59 µM |

| SMILES | activity change, positive = activation | Potency |
| --- | --- | --- |
| O=C(CN1C(=O)NC2(CCOc3ccccc32)C1=O)Nc1ccc(F)c(F)c1F (configuration not stated) | inactive: -3.76% | – |
| CCOc1ccc(S(=O)(=O)Nc2cc(OC)ccc2OC)cc1 | – | inconclusive: 4.11 µM [activator, full curve, poor fit] |
| Cc1cc(N)n2ncc(-c3cccc(Br)c3)c2n1 | – | active: 16.4 µM |
| Cn1c(NC(=O)c2cccc(Cn3cc(Cl)cn3)c2)nc2ccccc21 | – | active: 10.3 µM |
| COC(=O)c1[nH]c2ccc(Cl)cc2c1NC(=O)Oc1ccccc1 | – | inconclusive: 18.4 µM [activator, partial curve, poor fit] |
| Cc1cccc(NC(=O)c2nc[nH]c2C(=O)Nc2ccccc2[N+](=O)[O-])c1 | – | inconclusive: 18.4 µM [activator, single point] |
| Cc1ccc(N2C(=O)CC(SCC(=O)Nc3ccc(S(N)(=O)=O)cc3)C2=O)cc1 (configuration not stated) | – | inconclusive: 16.4 µM [activator, single point] |
| OCc1cn(-c2ccccc2)nc1-c1ccc(Br)cc1 | – | inconclusive: 25.1 µM [activator, single point] |
| N/C(=N\OC(=O)COc1cc(Cl)c(Cl)cc1Cl)c1ccncc1 | – | active: 18.3 µM |
| COc1ccccc1-n1nc(C(=O)NCc2ccco2)c2ccccc2c1=O | inactive: -0.761% | – |
| O=C1c2ccccc2C(=O)N1CCOc1ccc(F)cc1 | – | active: 20.6 µM |
| COc1ccc(C2=CC(c3ccc(F)cc3)n3nnnc3N2)cc1 (configuration not stated) | – | inconclusive: 23.1 µM [activator, partial curve, poor fit] |
| Cc1ccccc1OCC(=O)NCc1ccccc1 | – | inconclusive: 11.6 µM [activator, partial curve, poor fit] |
| O=C(Nc1nnc(Cc2ccc(Cl)cc2)s1)c1ccco1 | – | inconclusive: 23.1 µM [activator, single point] |
| CCOC(=O)N1CCC(c2cc(=O)n3[nH]ccc3n2)CC1 | inactive: 0.153% | – |
| Cc1nc2ccc(-c3nc4ccccc4o3)cc2[nH]1 | – | inconclusive: 3.26 µM [activator, full curve, poor fit] |
| O=C(c1cc(COc2ccc(F)cc2Cl)on1)N1CCSCC1 | – | inconclusive: 20.6 µM [activator, partial curve] |
| COC(=O)c1ccc(Oc2nc(N(C)C)nc(N3CCOCC3)n2)cc1 | inactive: 0.748% | – |
| CCOc1ccc(-c2nc(CSCC(=O)NCC3CCCO3)c(C)o2)cc1 (configuration not stated) | inactive: -0.0695% [at 9.26 µM] | – |
| O=c1[nH]ncc(N/N=C/c2ccccc2)c1Cl | – | inconclusive: 20.6 µM [activator, single point] |
| Fc1ccc(/C=N/Nc2ncnc3nc[nH]c23)cc1F | – | active: 20.6 µM |
| CC1CCCCC12NC(=O)N(CC(=O)N1CCN(S(=O)(=O)/C=C/c3ccccc3)CC1)C2=O (configuration not stated) | inactive: 1.54% | – |
| CC1(C)CC(=O)C=C(C(=O)N2CCCC(C(=O)c3cccc(Cl)c3)C2)O1 (configuration not stated) | inactive: -4.46% | – |
| O=C(N/N=C1/CCSC1)c1cccc([N+](=O)[O-])c1 | inactive: -0.504% | – |

| SMILES | activity change, positive = activation | Potency |
| --- | --- | --- |
| CCN(CC)S(=O)(=O)c1cc(C(=O)Nc2cc(C)[nH]n2)ccc1Cl | – | inconclusive: 11.6 µM [activator, partial curve, poor fit] |
| Cc1cccnc1NC(=O)Nc1cccc(Cl)c1 | – | inconclusive: 4.11 µM [activator, full curve] |
| C/C(=N\Nc1nc(C(C)(C)C)cs1)c1ccc(O)cc1 | – | inconclusive: 20.6 µM [activator, partial curve, poor fit] |
| Cc1cc(NC(=O)c2cc3cccc([N+](=O)[O-])c3[nH]2)ccc1F | – | inconclusive: 1.64 µM [activator, partial curve, poor fit] |
| COc1ccc(/C=N/NC(=O)c2cc(=O)[nH]c3ccccc23)cc1OC | – | inconclusive: 0.116 µM [activator, single point] |
| CCC(=O)NC(=S)Nc1ccc(N2CCOCC2)cc1 | – | inconclusive: 18.3 µM [activator, partial curve, poor fit] |
| CCC(NC(=O)CSc1nnnn1C1CC1)c1ccc(Br)cc1 (configuration not stated) | inactive: 3.45% | – |
| Cn1c(SCc2ccccc2F)nnc1-c1ccccn1 | – | inconclusive: 20.6 µM [activator, partial curve] |
| Cc1ccc(/C(O)=C/c2nc3cc(C)ccc3oc2=O)cc1 | inactive: 0.95% | – |
| Cc1ccc(Nc2nnc(SCC(=O)Nc3ncc(S(=O)(=O)c4ccc([N+](=O)[O-])cc4)s3)s2)cc1 | – | inconclusive: 20.6 µM [activator, partial curve, poor fit] |
| O=S(=O)(Nc1ccc(-c2ccc3nncn3n2)cc1)c1cccc(F)c1 | inactive: 0% | – |
| Cn1cc(Br)c(C(=O)NNC(=O)c2ccc(Cl)cc2)n1 | – | inconclusive: 16.4 µM [activator, partial curve, poor fit] |
| CN(C)C(=O)c1cn(-c2ccccc2)nc1-c1cccs1 | inactive: 4.08% | – |
| CCN(CC(=O)Nc1c(F)cccc1F)C(=O)c1cccc(S(=O)(=O)N2CCCCCC2)c1 | inactive: -5.45% | – |
| COc1cc(/C=C(\C#N)C(=O)Nc2cccc(C(=O)O)c2)ccc1OCc1ccc(F)cc1 | – | active: 20.6 µM |
| COc1ccc(NC(=O)c2cc(C(C)C)on2)c(OC)c1 | – | active: 14.6 µM |
| CCOc1ccc(C(=O)O/N=C(\N)c2ccccn2)cc1 | – | inconclusive: 0.146 µM [activator, partial curve] |
| CSC1CCCCC1(O)CSc1nc2ccccc2o1 (configuration not stated) | – | inconclusive: 32.6 µM [activator, partial curve, poor fit] |
| CC(C(Sc1ccccc1N)c1ccccc1)[N+](=O)[O-] (configuration not stated) | – | inconclusive: 18.3 µM [activator, single point] |
| CCOC(=O)c1c(C)n(C)c2ccc(OCC(O)Cn3c(C)nc4ccccc43)cc12 (configuration not stated) | inactive: -28% | – |
| CCOC(=O)c1ccc(N2C(=O)C3C(C2=O)C(C(=O)c2ccc(Cl)cc2)N2CCCC32)cc1 (configuration not stated) | – | inconclusive: 16.4 µM [activator, single point] |
| NC(=O)c1cc(S(=O)(=O)N2CCCC2)ccc1OCCOc1ccccc1 | inactive: -5.01% | – |
| CCC(=O)NC(=S)Nc1ccc(-c2nc3ccccc3s2)cc1 | – | inconclusive: 1.84 µM [activator, full curve, poor fit] |
| COCCNC(=O)c1cc(-c2ccc(Cl)c(Cl)c2)on1 | – | inconclusive: 18.4 µM [activator, partial curve] |
